These are yes or no findings as the source states them, for the method shown. For part of these data: In cells and extracts the contact can be indirect. Some entries that bind do so weakly or less than the wild type. For part of these data: Where a sequence is shown, tags or fusion partners need not be part of it.

The chains behind the UniProt entries cited, without tags or fusion partners. Where a name states a change or a piece, a line headed by the entry shows the natural chain unless it says otherwise.
UniProt P10664: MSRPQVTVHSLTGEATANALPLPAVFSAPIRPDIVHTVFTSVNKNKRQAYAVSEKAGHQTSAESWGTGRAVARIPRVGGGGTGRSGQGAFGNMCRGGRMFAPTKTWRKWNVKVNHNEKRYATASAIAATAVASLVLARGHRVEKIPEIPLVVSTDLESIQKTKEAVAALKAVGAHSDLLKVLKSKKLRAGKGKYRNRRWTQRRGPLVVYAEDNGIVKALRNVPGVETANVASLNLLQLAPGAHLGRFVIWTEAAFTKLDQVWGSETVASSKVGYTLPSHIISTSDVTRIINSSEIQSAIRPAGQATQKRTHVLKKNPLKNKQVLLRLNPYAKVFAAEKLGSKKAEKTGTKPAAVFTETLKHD

Experiment [1] addresses T1, full-length Acl4, yeast two-hybrid fusion (S. cerevisiae) (UniProt Q03771).
T1 sequence: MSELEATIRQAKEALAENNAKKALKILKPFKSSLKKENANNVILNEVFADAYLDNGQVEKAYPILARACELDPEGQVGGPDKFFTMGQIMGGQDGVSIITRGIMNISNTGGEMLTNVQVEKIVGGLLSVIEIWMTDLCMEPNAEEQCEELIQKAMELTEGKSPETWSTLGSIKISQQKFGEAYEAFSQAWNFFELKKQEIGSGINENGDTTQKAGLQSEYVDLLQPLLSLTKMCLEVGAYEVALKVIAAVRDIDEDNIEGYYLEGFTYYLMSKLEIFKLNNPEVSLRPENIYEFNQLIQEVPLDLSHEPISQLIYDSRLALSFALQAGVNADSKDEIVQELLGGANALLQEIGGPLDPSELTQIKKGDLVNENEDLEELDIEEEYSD
The experiment can be described thus: two-hybrid; reporter strain PJ69-4A; bait fused to Gal4 DNA-binding domain, prey fused to Gal4 activation domain; growth on SC-Leu-Trp-His (HIS3) and SC-Leu-Trp-Ade (ADE2) plates, 3 days at 30°C.

For experiment [2], the target named is T2, Caf130-GFP (S. cerevisiae) (UniProt P53280).
T2 sequence: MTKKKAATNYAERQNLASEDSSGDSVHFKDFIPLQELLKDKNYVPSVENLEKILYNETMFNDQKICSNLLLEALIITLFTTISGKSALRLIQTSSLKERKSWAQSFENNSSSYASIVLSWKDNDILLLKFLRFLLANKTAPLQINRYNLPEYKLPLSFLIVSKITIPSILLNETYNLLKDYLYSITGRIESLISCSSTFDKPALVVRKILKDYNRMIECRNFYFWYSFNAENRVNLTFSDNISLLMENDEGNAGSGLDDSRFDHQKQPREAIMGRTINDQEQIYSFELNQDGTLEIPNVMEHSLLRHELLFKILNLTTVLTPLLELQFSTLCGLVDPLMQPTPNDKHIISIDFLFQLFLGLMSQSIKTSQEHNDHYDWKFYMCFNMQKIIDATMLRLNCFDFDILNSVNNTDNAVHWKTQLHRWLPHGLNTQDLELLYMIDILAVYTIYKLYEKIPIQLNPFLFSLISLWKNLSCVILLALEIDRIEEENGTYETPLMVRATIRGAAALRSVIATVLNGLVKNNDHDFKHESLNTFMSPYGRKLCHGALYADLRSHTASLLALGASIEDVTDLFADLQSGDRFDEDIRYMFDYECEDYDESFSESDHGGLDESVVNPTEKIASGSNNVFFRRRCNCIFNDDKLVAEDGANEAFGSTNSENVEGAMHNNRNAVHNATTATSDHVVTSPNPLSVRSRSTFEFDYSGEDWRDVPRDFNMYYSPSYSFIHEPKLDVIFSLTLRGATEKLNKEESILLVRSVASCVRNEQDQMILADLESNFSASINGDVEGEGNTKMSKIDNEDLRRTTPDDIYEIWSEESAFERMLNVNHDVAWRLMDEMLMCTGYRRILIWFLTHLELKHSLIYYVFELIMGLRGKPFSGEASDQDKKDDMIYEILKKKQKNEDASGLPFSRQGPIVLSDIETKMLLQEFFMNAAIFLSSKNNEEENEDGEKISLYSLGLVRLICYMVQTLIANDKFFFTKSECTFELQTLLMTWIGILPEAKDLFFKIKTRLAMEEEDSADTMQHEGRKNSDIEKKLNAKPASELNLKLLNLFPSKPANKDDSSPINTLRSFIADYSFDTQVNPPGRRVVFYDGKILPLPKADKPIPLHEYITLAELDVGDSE
As to the kind of experiment: co-IP; GFP-Trap magnetic agarose beads capture the C-terminally GFP-tagged bait from yeast cell lysate (2 hr at 4°C; 50 mM Tris-HCl pH 7.5, 100 mM NaCl, 1.5 mM MgCl2, 5% glycerol, 0.1% NP-40; nine washes); C-terminally TAP-tagged prey detected by Western blot (anti-protA); strains with nontagged bait as background control. In general terms: In western blotting, separated proteins are transferred to a membrane and probed.

Experiment [3] concerns the target T3, Btt1 (amino acids 38–129), yeast two-hybrid fusion (S. cerevisiae) (UniProt P40314).
T3 sequence: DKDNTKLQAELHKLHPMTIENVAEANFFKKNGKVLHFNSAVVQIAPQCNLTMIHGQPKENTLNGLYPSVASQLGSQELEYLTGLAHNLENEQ
The experiment can be described thus: two-hybrid; reporter strain PJ69-4A; bait fused to Gal4 DNA-binding domain, prey fused to Gal4 activation domain; growth on SC-Leu-Trp-His (HIS3) and SC-Leu-Trp-Ade (ADE2) plates, 3 days at 30°C.

Experiment [4] deals with T4, Cal4 (amino acids 26–222), yeast two-hybrid fusion (S. cerevisiae) (UniProt P47086).
T4 sequence: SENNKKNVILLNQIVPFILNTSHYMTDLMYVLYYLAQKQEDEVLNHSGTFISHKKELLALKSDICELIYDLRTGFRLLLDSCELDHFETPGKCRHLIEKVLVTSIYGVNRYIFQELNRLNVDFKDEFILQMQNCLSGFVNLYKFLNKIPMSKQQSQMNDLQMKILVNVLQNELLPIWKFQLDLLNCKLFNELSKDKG
Described as above.

Experiment [5] deals with T5, Not1 (amino acids 21–153), Caf130-interacting domain, yeast two-hybrid fusion (S. cerevisiae) (UniProt P25655).
T5 sequence: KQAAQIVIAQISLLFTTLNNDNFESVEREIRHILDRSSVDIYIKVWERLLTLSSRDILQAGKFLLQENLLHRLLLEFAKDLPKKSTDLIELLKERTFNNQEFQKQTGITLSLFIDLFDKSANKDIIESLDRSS
The description is as above.

The target in experiment [6] is T6, full-length Btt1, yeast two-hybrid fusion (S. cerevisiae) (UniProt P40314).
T6 sequence: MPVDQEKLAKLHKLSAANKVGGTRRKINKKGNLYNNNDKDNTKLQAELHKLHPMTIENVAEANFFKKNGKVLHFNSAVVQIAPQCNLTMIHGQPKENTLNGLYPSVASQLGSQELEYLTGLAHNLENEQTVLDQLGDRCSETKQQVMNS
The experiment is described as above.

Experiment [7] deals with T7, full-length Cal4, yeast two-hybrid fusion (S. cerevisiae) (UniProt P47086).
T7 sequence: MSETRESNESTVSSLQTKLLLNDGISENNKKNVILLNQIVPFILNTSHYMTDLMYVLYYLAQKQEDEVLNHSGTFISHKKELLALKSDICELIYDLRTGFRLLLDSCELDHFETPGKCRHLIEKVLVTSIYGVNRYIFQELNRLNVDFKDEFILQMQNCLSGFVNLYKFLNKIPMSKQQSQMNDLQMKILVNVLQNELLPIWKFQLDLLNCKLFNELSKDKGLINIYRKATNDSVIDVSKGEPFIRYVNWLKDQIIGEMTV
The description is as above.

The target in experiment [8] is full-length Not1, yeast two-hybrid fusion (S. cerevisiae) (UniProt P25655). The description is as above.
A further experiment addresses T8, Egd2-GFP (S. cerevisiae) (UniProt P38879).
T8 sequence: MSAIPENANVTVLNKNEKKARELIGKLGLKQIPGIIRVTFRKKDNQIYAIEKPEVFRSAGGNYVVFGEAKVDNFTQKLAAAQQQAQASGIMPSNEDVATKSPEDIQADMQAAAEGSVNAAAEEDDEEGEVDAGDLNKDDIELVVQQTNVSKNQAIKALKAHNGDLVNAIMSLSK
The experiment can be described thus: co-IP; GFP-Trap magnetic agarose beads capture the C-terminally GFP-tagged bait from yeast cell lysate (2 hr at 4°C; 50 mM Tris-HCl pH 7.5, 100 mM NaCl, 1.5 mM MgCl2, 5% glycerol, 0.1% NP-40; nine washes); C-terminally TAP-tagged prey detected by Western blot (anti-protA); strains with nontagged bait as background control.

For experiment [9], the target named is Not1.154C-GFP (Not1 lacking the first 153 amino acids, C-terminally GFP-tagged) (S. cerevisiae) (UniProt P25655). The description is as above.

Regarding “Rpl4a, yeast two-hybrid fusion (from UniProt P10664 1-362)”, the binding entry in [1] is “binds”.
Same read-out and setting: in the case of “Rpl4a.W109C, yeast two-hybrid fusion (from UniProt P10664 1-362)” it was “binds”.

B1: Btt1-TAP (protein, UniProt P40314 1-149)
chain: MPVDQEKLAKLHKLSAANKVGGTRRKINKKGNLYNNNDKDNTKLQAELHKLHPMTIENVAEANFFKKNGKVLHFNSAVVQIAPQCNLTMIHGQPKENTLNGLYPSVASQLGSQELEYLTGLAHNLENEQTVLDQLGDRCSETKQQVMNS
Take B1: the binding result in experiment [2] is on record as “binds”.

B2: full-length Caf130, yeast two-hybrid fusion (protein, UniProt P53280 1-1122)
chain: MTKKKAATNYAERQNLASEDSSGDSVHFKDFIPLQELLKDKNYVPSVENLEKILYNETMFNDQKICSNLLLEALIITLFTTISGKSALRLIQTSSLKERKSWAQSFENNSSSYASIVLSWKDNDILLLKFLRFLLANKTAPLQINRYNLPEYKLPLSFLIVSKITIPSILLNETYNLLKDYLYSITGRIESLISCSSTFDKPALVVRKILKDYNRMIECRNFYFWYSFNAENRVNLTFSDNISLLMENDEGNAGSGLDDSRFDHQKQPREAIMGRTINDQEQIYSFELNQDGTLEIPNVMEHSLLRHELLFKILNLTTVLTPLLELQFSTLCGLVDPLMQPTPNDKHIISIDFLFQLFLGLMSQSIKTSQEHNDHYDWKFYMCFNMQKIIDATMLRLNCFDFDILNSVNNTDNAVHWKTQLHRWLPHGLNTQDLELLYMIDILAVYTIYKLYEKIPIQLNPFLFSLISLWKNLSCVILLALEIDRIEEENGTYETPLMVRATIRGAAALRSVIATVLNGLVKNNDHDFKHESLNTFMSPYGRKLCHGALYADLRSHTASLLALGASIEDVTDLFADLQSGDRFDEDIRYMFDYECEDYDESFSESDHGGLDESVVNPTEKIASGSNNVFFRRRCNCIFNDDKLVAEDGANEAFGSTNSENVEGAMHNNRNAVHNATTATSDHVVTSPNPLSVRSRSTFEFDYSGEDWRDVPRDFNMYYSPSYSFIHEPKLDVIFSLTLRGATEKLNKEESILLVRSVASCVRNEQDQMILADLESNFSASINGDVEGEGNTKMSKIDNEDLRRTTPDDIYEIWSEESAFERMLNVNHDVAWRLMDEMLMCTGYRRILIWFLTHLELKHSLIYYVFELIMGLRGKPFSGEASDQDKKDDMIYEILKKKQKNEDASGLPFSRQGPIVLSDIETKMLLQEFFMNAAIFLSSKNNEEENEDGEKISLYSLGLVRLICYMVQTLIANDKFFFTKSECTFELQTLLMTWIGILPEAKDLFFKIKTRLAMEEEDSADTMQHEGRKNSDIEKKLNAKPASELNLKLLNLFPSKPANKDDSSPINTLRSFIADYSFDTQVNPPGRRVVFYDGKILPLPKADKPIPLHEYITLAELDVGDSE
Turning to B2, the binding entry in experiment [3], in experiment [4], in experiment [5], in experiment [6], in [7] and in experiment [8] was “binds” throughout.

B3: Cal4-TAP (protein, UniProt P47086 1-261)
chain: MSETRESNESTVSSLQTKLLLNDGISENNKKNVILLNQIVPFILNTSHYMTDLMYVLYYLAQKQEDEVLNHSGTFISHKKELLALKSDICELIYDLRTGFRLLLDSCELDHFETPGKCRHLIEKVLVTSIYGVNRYIFQELNRLNVDFKDEFILQMQNCLSGFVNLYKFLNKIPMSKQQSQMNDLQMKILVNVLQNELLPIWKFQLDLLNCKLFNELSKDKGLINIYRKATNDSVIDVSKGEPFIRYVNWLKDQIIGEMTV
On to B3, for which the binding result in experiment [2] is on record as “binds”; in the experiment with Egd2-GFP (S. cerevisiae), “no binding”; in [9] it was “no binding”.

Values taken from publication PMC8970588.
